Test results reported in the BET-seq Pho4 binding data (Le et al. 2018).
Some of the results follow. These are noisy estimates, calculated here from bound and input reads.

molecular target: T1, Pho4 (S. cerevisiae) (UniProt P07270); test: relative binding free energy (BET-seq); higher = weaker binding; details: reference: library average
T1 sequence: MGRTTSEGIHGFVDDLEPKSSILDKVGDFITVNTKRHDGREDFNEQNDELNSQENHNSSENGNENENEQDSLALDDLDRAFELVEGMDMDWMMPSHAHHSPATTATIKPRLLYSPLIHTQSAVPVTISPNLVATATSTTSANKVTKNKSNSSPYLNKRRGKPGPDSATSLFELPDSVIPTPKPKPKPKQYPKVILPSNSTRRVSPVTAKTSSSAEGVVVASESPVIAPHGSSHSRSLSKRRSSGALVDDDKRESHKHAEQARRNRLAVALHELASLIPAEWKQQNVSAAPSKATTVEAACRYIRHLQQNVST

Relative binding free energy, -0.26 kcal/mol:
GTCGGCACGTGGGGGA
TGCGCCACGTGGGCGG

Relative binding free energy, 0.01 kcal/mol:
TAGGGCACGTGAGCAT
GTGGACACGTGTTGGA
GGGTGCACGTGTGCCT
TGCCTCACGTGTGGGG
AGTGGCACGTGAGCAG
GAGGTCACGTGCTCGG

Relative binding free energy, -0.14 kcal/mol:
GACGACACGTGGGGTT
ACTAGCACGTGTTTTG

Relative binding free energy, 0.4 kcal/mol:
AAGTTCACGTGTGGTT
TATTTCACGTGCGGGT

Relative binding free energy, 0.12 kcal/mol:
GTGTACACGTGGATAA
GCGCTCACGTGGGAGG
CGTTGCACGTGGAGAG
GGGGTCACGTGCAATA
TAGGGCACGTGAAGCA
TTCGTCACGTGGACGG
GAAGTCACGTGTTGAT

Relative binding free energy, 0.37 kcal/mol:
GTCCTCACGTGTTTGG
GGAATCACGTGAGAGT
GTTTTCACGTGTGCCT
TGGTTCACGTGAATCT

Relative binding free energy, 0.25 kcal/mol:
GATTGCACGTGACGGG
TTATTCACGTGGATAG
TTTATCACGTGGACGG

Relative binding free energy, 0.26 kcal/mol:
GGTATCACGTGATTTT
GAGGTCACGTGCGGTT
GTTGTCACGTGTATGC
TTAATCACGTGTTTTC
TACGTCACGTGATGAT
AGGGCCACGTGAAGGA
TGCTTCACGTGTCTGG

Relative binding free energy, 0.38 kcal/mol:
TATTTCACGTGAAGAG

Relative binding free energy, -0.16 kcal/mol:
AAGACCACGTGGTGGG
GGCAGCACGTGGCGGG
TGTGGCACGTGCTTTA

Relative binding free energy, -0.17 kcal/mol:
GCGAGCACGTGGGCAG
GGATGCACGTGGATAG

Relative binding free energy, 0.21 kcal/mol:
GTTATCACGTGTAGGA
CGGGTCACGTGTATCT
ATTTGCACGTGTGAGA

Relative binding free energy, 0.23 kcal/mol:
AGGTACACGTGAGGTA
GGGAGCACGTGAGGAG
GATCACACGTGTGTTG

Relative binding free energy, -0.02 kcal/mol:
ACATGCACGTGTGTTA
GGGCCCACGTGCGGGT
AGATACACGTGTGTAT
ATGGTCACGTGCTGTA
GTTTGCACGTGGTGTA

Relative binding free energy, 0.28 kcal/mol:
TATGTCACGTGAATTA
GGGCTCACGTGGTGCG

Relative binding free energy, 0.24 kcal/mol:
GGGGTCACGTGACGTT
GGGAGCACGTGAGTGT
ATCTTCACGTGTTATG
GTTATCACGTGTCGTG
GGCCTCACGTGTGTGT

Relative binding free energy, -0.08 kcal/mol:
TAAGGCACGTGGGGAA

Relative binding free energy, 0.35 kcal/mol:
TAGGTCACGTGAAAGA
GACTTCACGTGTTTTT
AGTTTCACGTGATGCA
CATTTCACGTGAGGGA
TAGTTCACGTGGTTTT
GTTTTCACGTGAAGCG

Relative binding free energy, 0.39 kcal/mol:
GTCTGCACGTGTAGAT

Relative binding free energy, 0.18 kcal/mol:
AAAGTCACGTGAGGTA
TAAGACACGTGGGAAT
TAGGTCACGTGTAGTA
TTTTCCACGTGTAGCG

Relative binding free energy, -0.03 kcal/mol:
CTGAGCACGTGGGAGT
TATCGCACGTGCTGGG

Relative binding free energy, 0.3 kcal/mol:
GTGGTCACGTGTGAAG
TATTTCACGTGTACGA
TTTTTCACGTGCCTTG

Relative binding free energy, -0.06 kcal/mol:
GGGGGCACGTGCTTTA
TGATGCACGTGGATAA

Relative binding free energy, 0.06 kcal/mol:
ATGGTCACGTGCAGGG
TTTGTCACGTGATCAT
GTCGTCACGTGCGGGT
CATGACACGTGTGGGG
GTATCCACGTGTTTGT

Relative binding free energy, -0.22 kcal/mol:
CATGGCACGTGGGCGG

Relative binding free energy, 0.08 kcal/mol:
TTGTGCACGTGATTGA
TGTCGCACGTGTATAT
ATAGTCACGTGTTTTA
GGGTCCACGTGTGGGC
TGTTACACGTGGGTTA
AGTGTCACGTGGAACT
GTTTGCACGTGTGCCG

Relative binding free energy, 0.03 kcal/mol:
GCTAGCACGTGTAGGT
TTAATCACGTGGTATA
TAGATCACGTGGTGCA
AGGCTCACGTGGGGTA
TCCGACACGTGGTGTT
GTCTGCACGTGGTAGG

Relative binding free energy, 0 kcal/mol:
CTGCGCACGTGATGGT
TTCGGCACGTGTATAT
TGCTGCACGTGGTAGG
GAGTACACGTGCGGTG
TAGTGCACGTGTGTTC

Relative binding free energy, 0.02 kcal/mol:
TTAAACACGTGCTGTG
AGATGCACGTGTATGG
CGTTGCACGTGGAGGA
AGATGCACGTGTTCGG
AGAGGCACGTGTGGAA
TAGTGCACGTGTTATA

Relative binding free energy, -0.05 kcal/mol:
CGAGTCACGTGGGAGG
TAAGTCACGTGGCTAT
TTATGCACGTGACAGG
GTGTACACGTGGGTTC

Relative binding free energy, 0.27 kcal/mol:
GGGATCACGTGCAGTG

Relative binding free energy, -0.04 kcal/mol:
GGCACCACGTGGTGTT
GGGGCCACGTGTTGCT

Relative binding free energy, -0.15 kcal/mol:
GATGGCACGTGGTGGA
CCTGGCACGTGGGGAA
GGTGGCACGTGTGTAC
TGTAGCACGTGGATGC
CATTGCACGTGGGATG
TTTACCACGTGGGTTA

Relative binding free energy, -0.1 kcal/mol:
TAGAGCACGTGCGGAT
AGTTCCACGTGGGTAG

Relative binding free energy, 0.22 kcal/mol:
CGGGGCACGTGAACTG
GAAGCCACGTGTGGTT
GTGTTCACGTGTTAAG
ATTTGCACGTGAGTGC
TGGTACACGTGACGGA

Relative binding free energy, -0.11 kcal/mol:
TTCAGCACGTGTGAGT
TGGAGCACGTGTGCGT
ATGTCCACGTGGTTTA
AGGTGCACGTGGGGAA

Relative binding free energy, 0.31 kcal/mol:
GGATTCACGTGATGCT
TTGTTCACGTGATTGA
CAGAGCACGTGAAGTT

Relative binding free energy, -0.09 kcal/mol:
TGATGCACGTGGCAGT
GTGGTCACGTGGGCCA
GGGGGCACGTGCGTAT

Relative binding free energy, 0.15 kcal/mol:
TGGTGCACGTGAGCTT
GAAGGCACGTGATGAA
TGTGTCACGTGGTAAG
TGATGCACGTGGAATT
CTGTGCACGTGAGTTA
TAATGCACGTGAGTGC

Relative binding free energy, -0.21 kcal/mol:
TGTAACACGTGGGCGA

Relative binding free energy, -0.01 kcal/mol:
TGGTCCACGTGGTGGA
CGAGTCACGTGGTATT
CTGGGCACGTGGAGAG
GAGGCCACGTGGGATT
GTTGGCACGTGGAGGC
TGGGTCACGTGTGCCT

Relative binding free energy, -0.2 kcal/mol:
TTCTGCACGTGGGGGG
CCTTGCACGTGGGGGG
TAGCGCACGTGGTGAG
AGGGGCACGTGGCACG

Relative binding free energy, 0.17 kcal/mol:
GTGGTCACGTGCGGTA
TCGGACACGTGTATTT
ATGAACACGTGTGTCG
GGGTGCACGTGATGTG

Relative binding free energy, 0.42 kcal/mol:
TAGTTCACGTGTTTAG

Relative binding free energy, 0.14 kcal/mol:
ATTATCACGTGTTGGG
TGCTGCACGTGAAGTG
GATGCCACGTGGAGAG
ATGGGCACGTGAACTT
AGCTTCACGTGTGTTG
TATTTCACGTGGTTCT
GTATTCACGTGGTGCA
ACTTTCACGTGGTGAT
TCGGACACGTGTGGAA

Relative binding free energy, 0.16 kcal/mol:
CGGTGCACGTGAGCTG
TAGGTCACGTGGAGAT
TCTATCACGTGGGGTC
GTGATCACGTGTGCGG

Relative binding free energy, 0.09 kcal/mol:
ATCTACACGTGTGTGG
AGATACACGTGGTTTT
GTGTACACGTGATACG
ACGGCCACGTGAGGGG

Relative binding free energy, 0.2 kcal/mol:
ACTTACACGTGATGTG
TGGTACACGTGATATA

Relative binding free energy, 0.5 kcal/mol:
GTATTCACGTGAGAAT
AAGTTCACGTGAAGTC

Relative binding free energy, -0.12 kcal/mol:
GTAAGCACGTGGGACT

Relative binding free energy, 0.19 kcal/mol:
TTTGTCACGTGATGCT
TGCGTCACGTGATAAG

Relative binding free energy, 0.34 kcal/mol:
TTGTTCACGTGAATAT

Relative binding free energy, 0.44 kcal/mol:
GTTTACACGTGAGTGT

Relative binding free energy, 0.11 kcal/mol:
AGTGTCACGTGTAGTT
CATTGCACGTGTGGTC
GGATGCACGTGTGTGA

Relative binding free energy, -0.19 kcal/mol:
AATAGCACGTGGCGGG
AGTGTCACGTGCGTAA
TTCGGCACGTGGTTAT
AGGGGCACGTGCCAGT
AGCGCCACGTGTGTGT

Relative binding free energy, 0.05 kcal/mol:
TAGGTCACGTGCGTGA
TATTGCACGTGTAGAG
GGAAGCACGTGACGGG

Relative binding free energy, 0.13 kcal/mol:
CAAGACACGTGGAGTG
ATTGTCACGTGTGACT
GGTGCCACGTGGAGAG
AGGGACACGTGTGAGA

Relative binding free energy, 0.07 kcal/mol:
TGTAACACGTGTTTAT
TATATCACGTGCTTGA

Relative binding free energy, 0.1 kcal/mol:
ATCCACACGTGGTGGG
AGGGTCACGTGGTAGA
GATGACACGTGTGTAG
GACATCACGTGTGGGT
TAGCTCACGTGGCGGG
TTGGACACGTGGCGAT
GTCTTCACGTGCTGTG

Relative binding free energy, -0.23 kcal/mol:
ATGCGCACGTGGGGGG
GGGGCCACGTGCTTGG

Relative binding free energy, -0.07 kcal/mol:
GCGGGCACGTGCGTTA
GTTTGCACGTGGGTGA
TAATGCACGTGTTTGT
TTTAGCACGTGCGTGG
TAAGACACGTGGAGGT
TACGACACGTGGGGAG
TTAGGCACGTGCATGG

Relative binding free energy, -0.18 kcal/mol:
GGAAACACGTGGGATG
TTGAGCACGTGCTGTT

Relative binding free energy, 0.29 kcal/mol:
ATACTCACGTGTTGTT

Relative binding free energy, 0.04 kcal/mol:
GTAAGCACGTGGACGG
TGATGCACGTGACGGG
CATAGCACGTGTTGGC
GAGTCCACGTGTAGGT
AGTGTCACGTGACTTT
AAGGACACGTGGTTAA

Relative binding free energy, -0.13 kcal/mol:
TGTGCCACGTGCGGCT
GGCGGCACGTGGGCGT
TTATGCACGTGGAGGA
GGGGCCACGTGGGATT
